Our source for the survival values is PubChem BioAssay AID463173 (ICCB-Longwood Screening Facility, Harvard Medical School, 2010).

Each structure is given as a SMILES string. In all, about 52,000 compounds went through this assay and about 1,700 (3.3%) were called active. No stated cut-off is given here; in the data, active means survival mostly below about 52% (no sharp cut-off); inactive means mostly above about 56%. This is one part of the list.

The subject of the test is Wild type. The test can be described thus: growth inhibition of S. aureus wild type versus tarO mutant, primary screen, teichoic acid synthesis inhibitors, RN4220, OD600 (AID 463173). Conditions: S. aureus RN4220 wild type/DeltatarO growth, OD600, 18 h, active compounds read low, screened at 18.75 µg/mL (by protocol).
On to `CCOc1ccc(NC(=O)NCCn2nnc3cc(S(=O)(=O)N(C)C)ccc32)cc1`, for which the survival was inactive: 76%.

For `CC(C)(C)c1ccc(-c2nc(S(=O)(=O)c3ccccc3)c(N3CCOCC3)o2)cc1`, the survival was inactive: 33%.

With `O=C(NCC1CCCO1)c1c[nH]c2ccc(S(=O)(=O)Nc3ccc(F)cc3F)cc2c1=O` (stereo unspecified), the survival was inactive: 83%.

Consider `Cc1ccc(CNC(=O)c2sc3nc(-c4ccc(F)cc4)ccc3c2N)cc1`, for which the survival is inactive: 109%.

Take `CCOC(=O)C1=C(CN2CCCCC2)NC(=O)NC1c1ccc(C)cc1` (stereo unspecified): the survival is inactive: 77%.

For the compound `COc1cccc(CNS(=O)(=O)c2ccc(N3CCCCS3(=O)=O)cc2)c1`, the survival was inactive: 77%.

Consider `CC1CCCCN1Cc1c(O)ccc2c(=O)c(-c3ccccc3)coc12` (stereo unspecified), for which the survival is inactive: 69%.

In the case of `Cn1c(CNc2nc(-c3ccccc3)cs2)nnc1SCC(=O)OC1CCCCC1`, the survival is inactive: 109%.

As to `CCOc1ccc(C(CC(=O)Nc2cc(C)c(Cl)cc2OC)N2Cc3ccccc3C2=O)cc1OC` (stereo unspecified), the survival was inactive: 65%.

`CSc1nc(C)c(Oc2ccccc2)c(=O)n1C`: the survival is inactive: 98%.

Regarding `COc1ccc(C2CC(=O)c3c([nH]c(C(=O)OC4CCCCCC4)c3C)C2)cc1OC` (stereo unspecified), the survival was inactive: 78%.

Turning to `COc1cccc(CNC(=O)CCCn2nc(C)n3c(cc4sccc43)c2=O)c1`, the survival is inactive: 79%.

Consider `O=C(NC12CC3CC(CC(C3)C1)C2)N1CC2Cc3cccc(=O)n3C(C2)C1` (stereo unspecified), for which the survival is inactive: 94%.

In the case of `COc1ccc(-n2nnc(-c3nc(-c4ccccc4C)no3)c2N)cc1Cl`, the survival was inactive: 93%.

Turning to `COC(=O)c1ccccc1NC(=O)CCc1c(C)nc2c(c(C)nn2-c2ccccc2)c1C`, the survival is inactive: 117%.

Take `COc1ccc(-c2cc(C(=O)N3CCN(c4ccc(F)cc4)CC3)no2)cc1OC`: the survival is inactive: 72%.

For the compound `O=C(O)c1ccc(-c2nc3ccccc3[nH]2)cc1`, the survival is inactive: 106%.

Take `COc1ccc(Cn2ccc3nc(C)c(C(=O)NCc4ccc(OC)cc4OC)cc3c2=O)cc1`: the survival is inactive: 19%.

With `O=C(NCc1ccccc1)C(c1ccco1)N(C(=O)c1csnn1)c1ccccc1` (stereo unspecified), the survival was inactive: 101%.

As for `CCN(C(=O)c1nn(-c2ccc(C)cc2)c(=O)c2c1c1ccccc1n2C)c1ccc(F)cc1`, the survival is inactive: 96%.

For the compound `O=c1[nH]c(CSc2ncc(-c3ccc(F)cc3)n2Cc2ccco2)nc2ccccc12`, the survival was inactive: 102%.

Turning to `O=C(Nc1nnc(S(=O)(=O)N2CCCC2)s1)c1ccccc1F`, the survival was inactive: 51%.

In the case of `Cc1cccc(OCC(=O)N(Cc2ccc(C(C)C)cc2)Cc2ccco2)c1C`, the survival was inactive: 62%.

Take `Cc1ccc(N2CC(NC(=O)c3ccco3)CC2=O)cc1C` (stereo unspecified): the survival was inactive: 95%.

For `CC(C)COc1ccc(-c2nonc2NC(=O)c2ccc(F)cc2)cc1`, the survival was inactive: 93%.

As to `O=C(NCCc1ccccc1)c1ccc(CSc2nc3ccncc3n2Cc2ccccc2F)cc1`, the survival is inactive: 97%.

Take `CCNc1nc(NC(C)C)nc(OCCNC(=O)COc2ccc(Cl)cc2C)n1`: the survival is inactive: 107%.

For the compound `CCOC(=O)c1cc(-c2ccc(F)cc2)n(CCC(=O)NCc2ccccc2OC)c1C`, the survival was inactive: 64%.

On to `COc1ccc(NC(=O)C(C)n2c(C)c3cnn(-c4ccccc4)c(=O)c3c2C)cc1Cl` (stereo unspecified), for which the survival was inactive: 84%.

For `O=C(Cn1ncc2c([nH]c3ccccc32)c1=O)NCc1cccc(Cl)c1`, the survival is active: -3%.

`CCOC(=O)c1cnc2c(C)cc(Cl)cc2c1NCCc1ccc(OC)c(OC)c1`: the survival was inactive: 48%.

Regarding `COc1ccc(C(=O)NNc2ncnc3c2cnn3-c2ccccc2)cc1`, the survival was inactive: 79%.

For the compound `CCOC(=O)C1CCCN(Cc2cn3c(-c4ccc(Br)cc4)nnc3s2)C1` (stereo unspecified), the survival is inactive: 68%.

`CCOc1ccc(NC(=O)Cc2ccc(-n3c(C)nc4cccnc43)cc2)cc1`: the survival is inactive: 143%.

Regarding `COc1ccc(NC(=O)C(=O)NCC(c2cccnc2)N2CCc3ccccc3C2)cc1` (stereo unspecified), the survival was inactive: 83%.

`O=C(CC1N=C2c3ccccc3N=C(SCc3ccccc3Cl)N2C1=O)NCc1cccs1` (stereo unspecified): the survival is inactive: 65%.

For the compound `CC(=O)N1CCC(N(Cc2ccco2)C(=O)Nc2ccc(Br)cc2F)CC1`, the survival is inactive: 136%.

As to `CCN(CC)CCNC(=O)c1[nH]c2ccccc2c1Sc1ccc(Cl)cc1`, the survival was inactive: 42%.

For `O=C(Nc1cc(Cl)ccc1Cl)c1cc(S(=O)(=O)N2CCCc3ccccc32)ccc1F`, the survival was inactive: 78%.

`Cc1ccc(NC(=O)CN2C(=O)c3ccccc3Sc3ccc(C(=O)N4CCCC4)cc32)cc1`: the survival is inactive: 64%.

Consider `COc1ccc(NC(=O)C(NC(=O)/C=C\c2ccc3c(c2)OCO3)c2ccc(OC)cc2)cc1` (stereo unspecified), for which the survival is inactive: 79%.

`CN(C(=O)c1ccc2c(c1)N(Cc1ccccc1F)C(=O)c1ccccc1S2(=O)=O)C1CCCCC1`: the survival was inactive: 149%.

As for `Cc1cc2n(n1)CCC(=O)N2Cc1ccc(C(=O)Nc2ccc(Br)c(C)c2)cc1`, the survival is inactive: 71%.

In the case of `COc1ccc(CCN2CC(O)=C(c3nc4ccccc4c(=O)[nH]3)C2=N)cc1OC`, the survival was inactive: 110%.

On to `Cc1ccc(-n2nc(C(=O)Nc3cccc(C#N)c3)c3c4ccccc4n(C)c3c2=O)cc1`, for which the survival is inactive: 137%.

Regarding `CC1=C(C(=O)Nc2cccnc2)C(c2ccc(Cl)cc2)n2nc(SCc3ccccc3)nc2N1` (stereo unspecified), the survival is inactive: 73%.

For `COC(=O)c1c(NC(=O)COc2c(C)ccc(C)c2C)sc2c1CCC(C)C2` (stereo unspecified), the survival is active: 11%.

With `O=C(Cn1ncc2ccsc2c1=O)N1CCN(c2ccccc2)CC1`, the survival was inactive: 75%.

As for `CCCSc1nc2c(c(=O)[nH]1)C(c1ccc(F)cc1F)CC(=O)N2` (stereo unspecified), the survival is inactive: 87%.

Turning to `O=S(=O)(Nc1cccc(-c2ccc(N3CCOCC3)nn2)c1)c1ccccc1C(F)(F)F`, the survival was inactive: 80%.

Consider `CCN(CC)c1cc2c(cc1F)c(=O)c(S(=O)(=O)c1ccc(C)cc1)cn2Cc1ccc(F)cc1`, for which the survival is inactive: 71%.

Consider `CCOc1ccc(NC(=O)[C@H](Cc2ccccc2)N2Cc3ccccc3C2=O)cc1`, for which the survival was inactive: 93%.

Regarding `O=C(NCCc1ccc(Cl)cc1)c1nc(-c2cccc(F)c2)n2c1CCCCC2`, the survival is inactive: 140%.

With `CCCN1CCN(c2ncnc3sc(C(=O)Nc4cccc(Cl)c4C)c(C)c23)CC1`, the survival was inactive: 78%.

Take `CC(C)c1ccccc1Oc1c(C(F)(F)F)oc2c(CN3CCN(C)CC3)c(O)ccc2c1=O`: the survival is inactive: 71%.

Turning to `Cn1c(-c2ccc(S(=O)(=O)N3CCCC3)cc2)csc1=Nc1ccc(Cl)c(Cl)c1`, the survival is inactive: 63%.
